Test results from paper PMC4336329 (PLoS ONE, 2015).
Out of some 310,000 compounds screened, about 14,000 (4.5%) showed an effect of 50% or more. The effect is printed as a negative number. Some of the results follow.

These compounds were tested against human ether-à-go-go-related gene (hERG) potassium channel (human, UniProt Q12809) (assay: primary screen, population patch clamp on CHO cells stably expressing hERG).
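Further: peak tail current of the secondary pulse compared with the same well before compound.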

Chain of human ether-à-go-go-related gene (hERG) potassium channel (Q12809 whole entry, looked up): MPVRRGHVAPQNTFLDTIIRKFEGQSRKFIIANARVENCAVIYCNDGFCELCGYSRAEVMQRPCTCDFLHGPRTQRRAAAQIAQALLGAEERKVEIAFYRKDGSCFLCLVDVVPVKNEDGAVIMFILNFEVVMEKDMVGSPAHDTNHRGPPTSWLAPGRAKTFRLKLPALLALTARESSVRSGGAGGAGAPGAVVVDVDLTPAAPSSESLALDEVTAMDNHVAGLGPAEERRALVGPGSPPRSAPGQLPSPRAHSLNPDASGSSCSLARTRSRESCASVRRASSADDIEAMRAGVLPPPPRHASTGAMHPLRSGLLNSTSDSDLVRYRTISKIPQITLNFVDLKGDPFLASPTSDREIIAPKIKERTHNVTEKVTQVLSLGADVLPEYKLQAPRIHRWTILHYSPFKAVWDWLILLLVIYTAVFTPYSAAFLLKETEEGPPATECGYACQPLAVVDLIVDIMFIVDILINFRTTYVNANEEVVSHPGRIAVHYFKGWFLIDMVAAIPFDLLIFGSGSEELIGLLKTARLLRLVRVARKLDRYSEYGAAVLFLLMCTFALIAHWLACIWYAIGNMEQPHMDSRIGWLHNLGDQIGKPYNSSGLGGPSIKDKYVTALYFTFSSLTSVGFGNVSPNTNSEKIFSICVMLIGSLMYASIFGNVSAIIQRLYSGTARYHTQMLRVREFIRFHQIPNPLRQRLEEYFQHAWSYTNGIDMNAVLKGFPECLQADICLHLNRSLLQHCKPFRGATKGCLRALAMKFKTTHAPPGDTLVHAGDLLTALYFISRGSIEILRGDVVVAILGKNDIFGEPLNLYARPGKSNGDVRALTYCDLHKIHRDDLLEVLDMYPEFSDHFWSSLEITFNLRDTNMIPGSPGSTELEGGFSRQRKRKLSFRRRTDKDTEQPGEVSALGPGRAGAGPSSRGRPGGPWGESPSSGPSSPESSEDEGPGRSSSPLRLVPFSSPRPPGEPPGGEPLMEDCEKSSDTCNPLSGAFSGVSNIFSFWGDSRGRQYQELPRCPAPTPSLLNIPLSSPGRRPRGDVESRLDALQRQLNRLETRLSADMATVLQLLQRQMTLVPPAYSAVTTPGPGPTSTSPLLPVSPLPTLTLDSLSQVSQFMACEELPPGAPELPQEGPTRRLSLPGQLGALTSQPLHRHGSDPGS

Going from `CCOc1ccc(NS(=O)(=O)c2c(C)nc3sccn3c2=O)cc1` to `CCOc1ccc(NC(=O)Cn2sc3nc(C)cc(C)c3c2=O)cc1`, the “hERG current change (%, negative = inhibition) at 10uM” value rises from -14.6% to 4.94%.

Compared with `COc1cc(C(=O)Nc2nc(-c3cccs3)cs2)cc(OC)c1OC`, `COc1ccccc1NC(=O)COc1ccc(C(F)(F)F)cc1[N+](=O)[O-]` is lower in “hERG current change (%, negative = inhibition) at 10uM” value: 18.7% for the first, 0.204% for the second.

Compared with `Nc1c(C(=O)Nc2ccc(Cl)c(Cl)c2)sc2nc(-c3cccnc3)ccc12`, `CC(Oc1ccc2c(=O)c(-c3ccc(Cl)cc3)c(C(F)(F)F)oc2c1)C(=O)O` (centres unmarked) is higher in “hERG current change (%, negative = inhibition) at 10uM” value: -7.28% for the first, -0.765% for the second.

Going from `Cc1ccc(O)c(-c2cc(-c3ccc(F)cc3)no2)c1` to `Cn1c(N)c(Br)c(-c2ccc(F)cc2)c(C#N)c1=O`, the “hERG current change (%, negative = inhibition) at 10uM” value rises from 2.11% to 7.23%.

Compared with `c1ccc(-c2noc(CSc3nnnn3-c3ccccc3)n2)cc1`, `c1ccc(-c2noc(-c3ccc4ccccc4c3)n2)cc1` is higher in “hERG current change (%, negative = inhibition) at 10uM” value: -15% for the first, 11.9% for the second.

First: Cc1ccccc1Cn1nc(C)c(NC(=O)c2noc3c2CCc2ccccc2-3)c1C
Second: O=c1cc2c(nn1Cc1ccc(Cl)cc1)-c1ccccc1CC2
The “hERG current change (%, negative = inhibition) at 10uM” value of the first is higher: 17.3% for the first, -13.6% for the second.

Compared with `O=C1Oc2ccccc2C(=O)/C1=C\N1CCN(c2ccccc2)CC1`, `O=C(Nc1cccc([N+](=O)[O-])c1)N1CCN(c2ccccc2)CC1` is lower in “hERG current change (%, negative = inhibition) at 10uM” value: 2.32% for the first, -38.7% for the second.

Going from `Cc1ccc(CSc2nc3[nH]ncc3c(=O)[nH]2)cc1` to `CCOC(=O)c1c(CSc2ccccc2)n(C)c2ccc(O)cc12`, the “hERG current change (%, negative = inhibition) at 10uM” value rises from 4.08% to 21.3%.

Compared with `Cc1cc(NC(=O)c2ccccc2)cc(NC(=O)c2ccccc2)c1C`, `CCN(CC)P(=O)(Oc1ccccc1)Oc1ccccc1` is lower in “hERG current change (%, negative = inhibition) at 10uM” value: 17.2% for the first, -7.77% for the second.

Compared with `O=C(CNS(=O)(=O)c1ccccc1)N/N=C/c1ccccc1[N+](=O)[O-]`, `CCCCC1(CO)C(=O)N(c2ccccc2)N(c2ccccc2)C1=O` is higher in “hERG current change (%, negative = inhibition) at 10uM” value: 9.17% for the first, 15.4% for the second.

Compared with `O=C(CCN1c2ccccc2Sc2ccccc21)OCC(=O)N1CCN(C(=O)c2ccco2)CC1`, `CCN(Cc1ccccc1)C(=O)CCc1nc(CN2CCN(C(=O)c3ccc([N+](=O)[O-])cc3)CC2)no1` is higher in “hERG current change (%, negative = inhibition) at 10uM” value: -66% for the first, -64.2% for the second.

Going from `CCN(CC)CCC(=O)N1c2ccccc2Sc2ccc(Cl)cc21.Cl` to `COc1ccc(CC(=O)N(CCN(C)C)CC2CCCN(Cc3ccccc3F)C2)cc1` (centres unmarked), the “hERG current change (%, negative = inhibition) at 10uM” value rises from -42.7% to -26.3%.

Compared with `O=C(NCC1CCCO1)c1ccc(Br)s1` (centres unmarked), `O=C(O)c1ccc(S(=O)(=O)NCC2CCCO2)cc1` (centres unmarked) is lower in “hERG current change (%, negative = inhibition) at 10uM” value: 8.71% for the first, 2.36% for the second.

First: O=C(Cc1ccc2c(c1)OCCO2)N1CCN(S(=O)(=O)c2cccc(Cl)c2Cl)CC1
Second: Cn1c(=O)cc(SCC(=O)N2CCC3(CC2)OCCO3)c2ccc(Cl)cc21
The “hERG current change (%, negative = inhibition) at 10uM” value of the first is higher: -6.55% for the first, -45.3% for the second.

Compared with `CCN(Cc1ccccc1)C(c1ccccn1)c1nnnn1C(C)(C)CC` (centres unmarked), `Cc1c(Cc2ccccc2)c(=O)n2c([nH]c3ccccc32)c1C#N` is higher in “hERG current change (%, negative = inhibition) at 10uM” value: -12.1% for the first, -1.13% for the second.

Compared with `COCCc1ncc(CN2CCC(C(=O)Nc3ccc(-n4cccn4)cc3)CC2)cn1`, `CCOc1ccc(Nc2nc3ccccc3n2C)cc1` is lower in “hERG current change (%, negative = inhibition) at 10uM” value: 6.84% for the first, -13.5% for the second.

Compared with `CCOC(=O)C1=C(Cn2ccc(C(F)(F)F)n2)NC(=O)NC1c1ccc2c(c1)OCO2` (centres unmarked), `CCCOc1c(OC)cccc1C1CC(=O)Nc2cc3c(cc21)OCO3` (centres unmarked) is higher in “hERG current change (%, negative = inhibition) at 10uM” value: -14.7% for the first, -5.12% for the second.

Going from `Cc1ccc(C)c(/C=C(\C(=O)O)c2ccc(S(=O)(=O)N3CCCCC3)s2)c1` to `O=C(Cn1ccc([N+](=O)[O-])n1)N1CCCCCC1`, the “hERG current change (%, negative = inhibition) at 10uM” value rises from 8.44% to 11.3%.

Going from `Cc1cc2cc(C)c3nnc(SCC(=O)N4CCCc5ccccc54)n3c2cc1C` to `Clc1ccc2c(c1)C(c1ccccc1Cl)=NCc1nnc(N3CCN(CCSc4ccccc4)CC3)n1-2.O.O=C(O)/C=C/C(=O)O`, the “hERG current change (%, negative = inhibition) at 10uM” value falls from -12.3% to -66.5%.

Going from `CC1C(=O)CC(c2ccc([N+](=O)[O-])cc2)NC1c1ccc([N+](=O)[O-])cc1.Cl` (centres unmarked) to `O=C(Nc1nc(C2C3CC4CC(C3)CC2C4)cs1)c1cc2cc([N+](=O)[O-])ccc2oc1=O` (centres unmarked), the “hERG current change (%, negative = inhibition) at 10uM” value rises from -69.7% to 4.65%.

First: Cc1ccc(C)c(Nc2nc3nonc3nc2N2CCOCC2)c1
Second: CC(NC(=O)c1ccco1)C1COc2ccccc2O1 (centres unmarked)
The “hERG current change (%, negative = inhibition) at 10uM” value of the first is lower: 1.04% for the first, 5.35% for the second.

Compared with `CCCCCc1ccc(OCCC[n+]2ccccc2)c(CCCCC)c1.[Cl-]`, `N#CC1=C(N)C(C#N)(C#N)C(c2cccnc2)C2CCCC=C12` (centres unmarked) is higher in “hERG current change (%, negative = inhibition) at 10uM” value: -75.7% for the first, -17.8% for the second.
